In PubChem BioAssay (NCATS):
Inconclusive means that the source gave no clear call. Such entries were picked first, then a sample of the others. No potency is given beside an inconclusive call; the fits are too rough. Active and inactive are the calls of the source. Calls come from the whole dose curve; as a rule, active = well fitted curve in the direction sought with a large enough effect; inconclusive = small, poorly fitted or top-dose-only effect, or another doubt; inactive = no such curve, though single readings can be large; an effect the other way counts as inactive or inconclusive.

Assays:
[1] = qHTS of pediatric cancer cell lines to identify multiple opportunities for drug repurposing: Primary screen for Rh30 cells (AID 1347107); conditions: Rh30 rhabdomyosarcoma viability, CellTiter-Glo luminescence, 48 h; series mostly up to 46 µM; note: nearly all actives have a fitted effect of over 75% in size
Procedure, shortened: (§1)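 Cells (500-1,000/well) rested 5 h, then received compounds for 48 h; metabolically active cells were measured by CellTiter-Glo luminescence. Final concentrations spanned up to 46 µM (MIPE, 11-point) or 0.59 nM-46 µM (NPC, 8-point) in primary screens, 11-point in follow-ups.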

[2] = qHTS of pediatric cancer cell lines to identify multiple opportunities for drug repurposing: Primary screen for Rh41 cells (AID 1347108); conditions: Rh41 rhabdomyosarcoma viability, CellTiter-Glo luminescence, 48 h; series mostly up to 46 µM; note: nearly all actives have a fitted effect of over 70% in size
Procedure, shortened: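 Quantitative HTS format: each compound titrated (MIPE 11 points from 0.78 nM, NPC 8 points from 0.59 nM) onto cells plated 5 hours earlier. After 48 h at 37 degrees C, CellTiter-Glo luminescence was recorded.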

[3] = qHTS of pediatric cancer cell lines to identify multiple opportunities for drug repurposing: Confirmatory screen for NB1643 cells (AID 1347109); conditions: NB1643 neuroblastoma cell viability; series mostly up to 45.9 µM; note: nearly all actives have a fitted effect of over 45% in size
Procedure, shortened: as §1

[4] = qHTS of pediatric cancer cell lines to identify multiple opportunities for drug repurposing: Confirmatory screen for A673 cells (AID 1347110); conditions: A673 Ewing sarcoma cell viability; series mostly up to 45.9 µM;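 note: cells exposed to compound for 48 h before the viability read; nearly all actives have a fitted effect of over 65% in size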
Procedure, shortened: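 qHTS titration format: primary MIPE 0.78 nM-46 µM (11 pts), NPC 0.59 nM-46 µM; confirmation 11 pts. 48 h, CTG luminescence.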

[5] = qHTS of pediatric cancer cell lines to identify multiple opportunities for drug repurposing: Confirmatory screen for SK-N-MC cells (AID 1347111); conditions: SK-N-MC cell viability; series mostly up to 45.9 µM;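 note: cells exposed to compound for 48 h before the readout; nearly all actives have a fitted effect of over 70% in size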
Procedure, shortened: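 Seed 500-1,000 cells/well; rest 5 h at 37 degrees C. Pin-transfer compounds, 11-point titration. Incubate 48 h. Add CellTiter-Glo, 15 min RT, read luminescence.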

[6] = qHTS of pediatric cancer cell lines to identify multiple opportunities for drug repurposing: Confirmatory screen for BT-12 cells (AID 1347112); conditions: BT-12 rhabdoid tumor cells, viability; series mostly up to 45.9 µM;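 note: viability read after 48 h of compound exposure; nearly all actives have a fitted effect of over 55% in size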
Procedure, shortened: as §1

[7] = qHTS of pediatric cancer cell lines to identify multiple opportunities for drug repurposing: Confirmatory screen for LAN-5 cells (AID 1347113); conditions: LAN-5 neuroblastoma cell viability; series mostly up to 45.9 µM; note: nearly all actives have a fitted effect of over 65% in size
Procedure, shortened: as §1

[8] = qHTS of pediatric cancer cell lines to identify multiple opportunities for drug repurposing: Confirmatory screen for NB-EBc1 cells (AID 1347115); conditions: NB-EBc1 neuroblastoma cells, viability (cytotoxicity); series mostly up to 45.9 µM;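 note: cells exposed to compound for 48 h before the viability read; nearly all actives have a fitted effect of over 45% in size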
Procedure, shortened: as §1

[9] = qHTS of pediatric cancer cell lines to identify multiple opportunities for drug repurposing: Confirmatory screen for SJ-GBM2 cells (AID 1347116); conditions: SJ-GBM2 glioblastoma cells, viability; series mostly up to 45.9 µM; note: nearly all actives have a fitted effect of over 60% in size
Procedure, shortened: (§2)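 Viability measured as metabolically active cells via CellTiter-Glo luminescence following 48 hours of compound exposure, 11-point dilutions in confirmatory testing. 500-1,000 cells/well plated 5 hours before dosing; controls were DMSO and 2.3 µM bortezomib.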

[10] = qHTS of pediatric cancer cell lines to identify multiple opportunities for drug repurposing: Confirmatory screen for DAOY cells (AID 1347114); conditions: DAOY medulloblastoma cells viability, cytotoxicity qHTS; series mostly up to 45.9 µM; note: nearly all actives have a fitted effect of over 65% in size
Procedure, shortened: as §2
Potency is the fitted concentration of half-maximal effect; tags give direction and shape of the fitted curve.

Row | Compound | Potency [1] | Potency [2] | Potency [3] | Potency [4] | Potency [5] | Potency [6] | Potency [7] | Potency [8] | Potency [9] | Potency [10]
1 | Cc1nn(Cc2ccccc2Cl)c(C)c1CN(C)CC(O)COc1ccc(Cl)cc1 (stereo not given) | inconclusive [cytotoxic, partial curve] | active: 18.7 µM | inconclusive [cytotoxic, single point] | inconclusive [cytotoxic, single point] | inconclusive [cytotoxic, single point] | inconclusive [cytotoxic, single point] | inconclusive [cytotoxic, single point] | inactive | inactive | –
2 | CC(=CC(=O)Nc1ccccc1C(=O)O)c1ccc2ccccc2c1 | inactive | inconclusive [cytotoxic, partial curve] | – | – | – | – | – | – | – | –
3 | CC(=O)N1CCN(c2ccc(OCc3nn(C)c(C)c3-c3cccc4c(CCCOc5cccc6ccccc56)c(C(=O)O)n(Cc5cccnc5)c34)cc2)CC1 | active: 4.69 µM | active: 0.743 µM | inactive | inconclusive [cytotoxic, single point] | – | inactive | inconclusive [rising, full curve] | – | inconclusive [rising, full curve, poor fit] | inconclusive [cytotoxic, partial curve, poor fit]
4 | CN(C)CCN(C)C(=O)c1ccc(NC(=O)Nc2ccc(-c3nc(N4CCOCC4)c4ccn(CC(F)(F)F)c4n3)cc2)cc1 | inconclusive [cytotoxic, partial curve] | active: 0.166 µM | inconclusive [cytotoxic, full curve, poor fit] | – | inconclusive [cytotoxic, full curve, poor fit] | – | active: 0.414 µM | inactive | inconclusive [cytotoxic, full curve, poor fit] | active: 20.8 µM
5 | Cc1cc(N)c2cc(NC(=O)Nc3ccc4nc(C)cc(N)c4c3)ccc2n1 | inactive | inactive | – | – | – | – | – | – | – | –
6 | CC(C)Oc1cc(Nc2nc(N[C@@H](C)c3ccc(F)cn3)ncc2Cl)[nH]n1 | active: 8.33 µM | active: 5.26 µM | – | – | – | – | – | – | – | –
7 | O=C1NCN(c2ccccc2)C12CCN(CCCC(c1ccc(F)cc1)c1ccc(F)cc1)CC2 | inconclusive [cytotoxic, single point] | inconclusive [cytotoxic, single point] | – | – | – | – | – | – | – | –
8 | Cc1cc(CS(=O)(=O)c2ccccc2)cc(OCc2ccc(CN3CCC[C@H]3CO)cc2)c1 | inconclusive [cytotoxic, partial curve] | active: 11.8 µM | inactive | inconclusive [cytotoxic, partial curve, poor fit] | inconclusive [cytotoxic, single point] | inconclusive [rising, full curve, poor fit] | inconclusive [cytotoxic, single point] | – | inactive | inconclusive [cytotoxic, partial curve]
9 | O=C(Nc1cccc(C(F)(F)F)c1)Nc1cc(S(=O)(=O)NC2CC2)ccc1-c1ccsc1 | inconclusive [cytotoxic, partial curve] | inconclusive [cytotoxic, partial curve] | – | – | – | – | – | – | – | –
10 | O=C(O)c1ccc(Nc2ncc3c(n2)-c2ccc(Cl)cc2C(c2c(F)cccc2F)=NC3)cc1 | active: 18.7 µM | inconclusive [cytotoxic, partial curve] | inconclusive [cytotoxic, full curve, poor fit] | – | – | – | inactive | inconclusive [cytotoxic, full curve, poor fit] | inconclusive [cytotoxic, full curve, poor fit] | inconclusive [cytotoxic, full curve]
11 | CCCCCCCCCCCCCCCC[N+](C)(C)Cc1ccccc1 | inconclusive [cytotoxic, single point] | inconclusive [cytotoxic, single point] | – | – | – | – | – | – | – | –
12 | O=C(c1ccc(OCCN2CCCCC2)cc1)c1c(-c2ccc(O)cc2)sc2cc(O)ccc12 | inconclusive [cytotoxic, partial curve] | inconclusive [cytotoxic, partial curve] | inconclusive [cytotoxic, partial curve, poor fit] | – | – | inconclusive [cytotoxic, single point] | inconclusive [cytotoxic, single point] | inactive | inconclusive [cytotoxic, full curve, poor fit] | –
